Consider 67 compounds from article PMC6919601, “Identification of Plasmodium dipeptidyl aminopeptidase allosteric inhibitors by high throughput screening” (PLoS ONE, 2019).

About 230 (0.21%) of roughly 110,000 compounds showed an effect of 50% or more. Some of the results follow.
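Further: 30 min substrate incubation versus DMSO and 10 µM JCP410 controls.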

Sequence of DPAP1 (Q8IIJ9 whole entry, looked up): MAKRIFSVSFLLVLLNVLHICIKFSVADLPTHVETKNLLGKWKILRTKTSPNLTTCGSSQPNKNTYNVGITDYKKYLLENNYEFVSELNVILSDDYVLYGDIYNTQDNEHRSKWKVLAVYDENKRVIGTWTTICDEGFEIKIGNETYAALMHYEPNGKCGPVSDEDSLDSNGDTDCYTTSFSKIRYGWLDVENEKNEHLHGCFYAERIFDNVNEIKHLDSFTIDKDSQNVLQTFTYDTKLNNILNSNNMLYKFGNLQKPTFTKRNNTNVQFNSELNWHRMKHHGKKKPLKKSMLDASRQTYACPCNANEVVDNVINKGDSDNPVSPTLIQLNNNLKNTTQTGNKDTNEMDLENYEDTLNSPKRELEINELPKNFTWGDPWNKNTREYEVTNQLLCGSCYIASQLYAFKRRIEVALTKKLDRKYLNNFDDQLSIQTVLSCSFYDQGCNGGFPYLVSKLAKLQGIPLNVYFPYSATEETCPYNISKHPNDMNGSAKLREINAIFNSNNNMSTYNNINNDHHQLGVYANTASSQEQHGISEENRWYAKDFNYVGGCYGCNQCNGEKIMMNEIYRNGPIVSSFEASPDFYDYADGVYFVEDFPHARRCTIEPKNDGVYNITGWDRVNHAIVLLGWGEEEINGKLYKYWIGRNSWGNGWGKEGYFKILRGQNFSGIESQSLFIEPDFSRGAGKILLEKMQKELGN

This assay concerns the target DPAP1 (Plasmodium falciparum, UniProt Q8IIJ9). Put plainly: primary screen, percent inhibition; read by cleavage of a fluorogenic dipeptide substrate; higher = more effect of the substance. The arrangement: species or system P. falciparum D10 trophozoite lysates; single well.
As for `Clc1ccc(CNCCC2=CCCCC2)cc1`, the “% Inhibition @ 10 uM” value was 0.343%. For the compound `C=CCOc1ccc(/C=C2\C(=N)N3N=C(S(C)(=O)=O)SC3=NC2=O)cc1OC`, the “% Inhibition @ 10 uM” value was 5.1%. As for `CCOC(=O)N1CCC(N2CCN(C)CC2)CC1`, the “% Inhibition @ 10 uM” value came to 0.472%.

On to `O=C(CCC1CCCCC1)Nc1ccc(F)cc1`, for which the “% Inhibition @ 10 uM” value was -4.01%. Take `CCOC(=O)N1CCN(C(=O)CNS(=O)(=O)c2ccccc2)CC1`: the “% Inhibition @ 10 uM” value was -5.51%. Consider `C=CCNC(=O)CN(c1ccccc1CC)S(=O)(=O)c1ccc(C)cc1`, for which the “% Inhibition @ 10 uM” value is on record as 3.17%. In the case of `CC(=O)c1ccc2c(c1)c1cc(Cl)ccc1n2C` it was -3.04%. As for `COc1cc(/C=C/C(=O)NCCSc2c(C)[nH]c3ccccc23)cc(OC)c1OC`, the figure is 1.23%. `CCc1ccc(C(=O)NC2=NC(=O)CC(c3ccc(OC)cc3)N2)cc1` (stereo not shown): the “% Inhibition @ 10 uM” value was determined as 1.37%.

In the case of `O=C(c1ccccc1F)N1CCN(c2ccc(Cl)cc2)CC1`, the “% Inhibition @ 10 uM” value was -6.57%. In the case of `O=c1c(N2CCN(Cc3ccccc3)CC2)csc2ccccc12` it was 2.14%. With `Fc1cccc(CN2CCN(c3cccc(Cl)c3)CC2)c1`, the “% Inhibition @ 10 uM” value is listed as -1.92%. Regarding `Cc1nnc2sc(CCc3ccccc3)nn12`, the “% Inhibition @ 10 uM” value is given as 0.635%. For the compound `N#Cc1c(SCCc2ccccc2)nc(N2CCOCC2)c2c1CCCC2`, the “% Inhibition @ 10 uM” value turned out to be 2.11%.

Consider `CCC(C)NC(=O)C1CCCN(S(C)(=O)=O)C1` (stereo not shown), for which the “% Inhibition @ 10 uM” value turned out to be 0.514%. In the case of `OC(CNC1CCNCC1)c1ccc(Cl)c(Cl)c1` (stereo not shown) it was 1.89%. Turning to `CC(=O)N1CCC2(CC1)Oc1ccccc1C(=O)N2CC(=O)N1CCC(Cc2ccccc2)CC1`, the “% Inhibition @ 10 uM” value is given as -1.6%. Take `CC(C)(C)Cc1ccc(C2C(=O)c3ccccc3C2=O)cc1`: the “% Inhibition @ 10 uM” value came to 5.77%.

For `CCOC(=O)c1cnc(SCC(=O)N[C@]23C[C@H]4C[C@H](C[C@H](C4)C2)C3)nc1N`, the “% Inhibition @ 10 uM” value is given as 0.558%. In the case of `COc1ccc(N2C(=O)CC(Cc3ccccc3)C2=O)cc1` (stereo not shown) it was 0.661%.

Regarding `CCC(C(=O)N1CCOCC1)n1nc(C)c2c(C)n(-c3ccccc3)nc2c1=O` (stereo not shown), the “% Inhibition @ 10 uM” value is listed as -1.21%. For the compound `CN(C)c1ccc(NS(=O)(=O)c2ccccc2)cc1`, the “% Inhibition @ 10 uM” value was -1.78%. As for `O=C(Cn1nc(Cc2ccncc2)c2ccccc2c1=O)N(Cc1ccco1)C1CCCCC1`, the figure is -6.52%; as for `Cc1cc(C)c(NC(=O)CNC(C)(C)C)c(C)c1`, 1.29%; as for `Cc1ccc(CC(CC(=O)O)C(=O)Nc2ccc(Cl)cc2)cc1` (stereo not shown), -3.49%.

In the case of `FC(F)(F)c1cccc(-c2nnn3c2nc(NCC2CCCO2)c2ccccc23)c1` (stereo not shown), the “% Inhibition @ 10 uM” value is listed as 5.09%. Take `Cc1ccccc1OCC(=O)Nc1sc2c(c1C(=O)NC1CCS(=O)(=O)C1)CCCC2` (stereo not shown): the “% Inhibition @ 10 uM” value is reported as 3.21%. As for `CCOC(=O)c1c(N2C(=O)C=CC2=O)sc(C)c1C`, the figure is 3.8%; as for `COCc1cc(C)nc(SCC(=O)Nc2cc(Cl)ccc2Cl)c1C#N`, -5.01%. For `CCOc1ccc(N(C(C)C(=O)NCc2ccncc2)S(C)(=O)=O)cc1` (stereo not shown), the “% Inhibition @ 10 uM” value is reported as -2.8%. For the compound `CC1=C(C)CC2C(=O)N(c3c(C)cccc3C)C(=O)C2C1` (stereo not shown), the “% Inhibition @ 10 uM” value is 18%. In the case of `c1cc2c[nH]nc2cc1NCC1CCCCC1` it was -4.75%; in that of `COc1ccc(Nc2nc(-c3c(C)nc4ncccn34)cs2)cc1`, -0.711%; in that of `Cc1cc(Br)ccc1OCC(=O)N1CCc2ccccc21`, 0.245%. As for `COc1ccccc1OCC(=O)NCc1ccccc1`, the figure is -2.3%; as for `O=C(Cn1c2c(c(-c3ccccc3Cl)cc1=O)CCC2)NCCc1ccc(Cl)cc1`, -4.53%; as for `Clc1ccc2ncnc(-c3ccccc3)c2c1`, 0.132%. On to `CCN(CC)CCCNC(=O)C(C)n1nc(C)c2sc3ccccc3c2c1=O` (stereo not shown), for which the “% Inhibition @ 10 uM” value is given as 1.72%.

`c1ccc(CN2CCC(NCC3CCCCC3)CC2)cc1`: the “% Inhibition @ 10 uM” value is listed as -3.6%. Turning to `O=C(Nc1cc(C(F)(F)F)ccc1Cl)c1ccc2c(c1)OCO2`, the “% Inhibition @ 10 uM” value was found to be 5.41%. Take `CN1C(=O)c2[nH]nc(-c3ccc(F)cc3)c2C1c1ccc(O)cc1` (stereo not shown): the “% Inhibition @ 10 uM” value was -4.67%. As for `COCCCNC(=O)c1c(OC)cccc1OC`, the “% Inhibition @ 10 uM” value is 2.05%. As for `Cc1nnc(N2CCC(C(=O)NCCCN3CCN(C)CC3)CC2)c2nn(-c3ccccc3)c(C)c12`, the “% Inhibition @ 10 uM” value came to 3.99%. In the case of `CCCn1c2c(c(=N)c3c1CCC3)CCCC2`, the “% Inhibition @ 10 uM” value is -4.68%.

As for `O=C(/C=C/c1ccc(Cl)cc1)N1CCOCC1`, the “% Inhibition @ 10 uM” value was 3%.

`CCOc1ccc(C2c3c(oc4ccccc4c3=O)C(=O)N2c2nnc(C(C)C)s2)cc1OC` (stereo not shown): the “% Inhibition @ 10 uM” value was determined as 4.99%. In the case of `O=C(c1nn2c(C(F)(F)F)cc(-c3cccs3)nc2c1Br)N1CCOCC1`, the “% Inhibition @ 10 uM” value is 9.91%. `CCOc1ccc(-n2cccc2/C=C2\C(=N)N3N=CSC3=NC2=O)cc1`: the “% Inhibition @ 10 uM” value is recorded as -3.35%.

Take `O=C(Nc1ccccc1N1CCN(C(=O)c2ccccc2)CC1)c1cccnc1Cl`: the “% Inhibition @ 10 uM” value was -4.12%. In the case of `CCOc1ccc(N2CN=c3s/c(=C\c4cccnc4)c(=O)n3C2)cc1` it was 2.36%. On to `O=[N+]([O-])c1ccc(CNc2ccc(F)cc2)s1`, for which the “% Inhibition @ 10 uM” value is reported as -2.34%.

Consider `O=C(Cc1ccc(-n2cccc2)cc1)NC1CCCCCC1`, for which the “% Inhibition @ 10 uM” value turned out to be 1.2%. In the case of `O=C(Cc1ccccc1F)Nc1ccc(Cl)nc1` it was -0.872%; in that of `CCCCC(=O)C1=C(NC(C)C)CC(C)(C)CC1=O`, 3.46%; in that of `COc1ccc(C2c3c(n(C)c4ccccc34)C(=O)N2CC(=O)NCc2ccc3c(c2)OCO3)cc1` (stereo not shown), 3.42%. As for `COc1ccc(C2=NOC(C(=O)N3CCCCC3)C2)cc1OC` (stereo not shown), the figure is 1.24%; as for `CC(=O)OC[C@@H](C#N)NC(=O)[C@H](CC1CCCCC1)NC(=O)OCc1ccccc1`, -1.41%; as for `C=CCCC(C#N)NC(=O)[C@H](CC(C)C)NC(=O)OCc1ccccc1` (stereo partly shown), 1.71%. As for `CSc1nc(SC)c2c3c(sc2n1)CN(C)CC3`, the figure is 40.1%; as for `Nc1nc(=O)n(CC(O)C(=O)O)cc1Br` (stereo not shown), 0.0289%; as for `c1ccc2cc(CC3=NCCN3)ccc2c1`, -0.25%. On to `O=C1CSC2(C(=O)Nc3ccccc32)N1c1ccccc1` (stereo not shown), for which the “% Inhibition @ 10 uM” value was -6.36%. As to `Cc1c(Cl)cccc1NC(=O)c1cccnc1Cl`, the “% Inhibition @ 10 uM” value is -5.92%. As for `Cc1nn(CC(=O)N2CCC3(CC2)OCCO3)c(=O)c2cccn12`, the figure is -1.17%.

On to `CC(C)(C)c1ccccc1OCCCn1ccnc1`, for which the “% Inhibition @ 10 uM” value was 9.64%. As for `O=[N+]([O-])c1ccc(CN2CCN(c3ccc(Cl)cc3)CC2)o1`, the figure is 1.2%; as for `Cc1cc(C)n2c(SCc3c(C)noc3C)nnc2n1`, 2%.
